ChEMBL document CHEMBL4888484, “Replenishing the malaria drug discovery pipeline: Screening and hit evaluation of the MMV Hit Generation Library 1 (HGL1) against asexual blood stage Plasmodium falciparum ,using a nano luciferase reporter read-out” (2022)
Screen size: about 150,000 compounds; about 540 (0.36%) showed an effect of 50% or more. This is one part of the list.

test system: Plasmodium falciparum; assay: Primary screen in NF54 nanoGlo assay, in single point, at 2uM, 72h; a lower Z score goes with more inhibition; format: functional, Erythrocyte; details: timepoint 72 hour

Compound	% Inhibition	Z score
CCN(C[C@H]1CCCCO1)S(=O)(=O)c1ccc(-c2ccn[nH]2)o1	1%	-0.2
C[C@]1(CNC(=O)C2CC=CC2)CCCO1	-7%	1.38
CCN(CC(=O)NC(=O)NC)C1CN(C(=O)OC(C)(C)C)C1	-12%	1.2
CC12C=CC(C3C(=O)N(c4ccccc4F)C(=O)[C@H]31)C21CC1 (some centres undefined)	-10%	0.9
COCCN1C[C@]2(CCCN(C(=O)Cc3cccc(O)c3)C2)CCC1=O	-10%	1.11
CCC(=O)NCc1nc2c(n1CC)CN(S(=O)(=O)c1ccc(F)c(Cl)c1)CC2	-6%	0.82
Cc1cc(N)nc(Nc2ccc(Nc3ccccc3)cc2)n1	29%	-8.92
COc1ccccc1CNC(=O)c1ccc(S(=O)(=O)N2CCCCCC2)s1	-9%	1.18
COc1ccc(Oc2nc(N3CCCC3)c(Cl)c3c2N(C2CCCCC2)CCS3(=O)=O)cc1	3%	-0.55
CCCCCC(=O)N1CCN(c2cc(Oc3ccc(F)c(F)c3)ncn2)C[C@@H]1C	0%	-0.02
COc1ccc(CN2CCC(N3CC(O)=C(c4nc(-c5ccccc5)cs4)C3=N)CC2)cc1	-4%	0.57
CC(=O)N(CCC(=O)N1CCOC[C@@H]1C)Cc1ccccc1	-14%	1.79
CCC(CC)NC(=O)[C@H]1CCC[C@H]1NC(=O)c1ccc(OC)cc1	-8%	1.04
O=C(CCOc1cccc(F)c1)N1CCC(C(=O)N2CCCC2)CC1	-6%	0.87
CN1CCC(N(C)[C@H]2CC(=O)N(c3ccc(Br)cc3)C2=O)CC1	-10%	1.05
C=CCn1nc(C(=O)O)c2c1CC[C@H](N(C)Cc1ccncc1C)C2	-15%	1.51
CC[C@@]1(C(=O)NCCN2CCOCC2)CCCCC(=O)N1	5%	-0.52
COC(=O)c1ncn2c1CO[C@H](c1ccc(OC)cc1)C2	-5%	0.53
CC(C)c1ccc(C(=O)N2CC[C@H](N3CCN(C)CC3)[C@H](CCC(=O)O)C2)cc1	-1%	0.17
COc1cc2c(cc1OC)CN(C(=O)c1ccc(N(C)C)nc1)CC2	9%	-1.33
COc1cc2c(cc1OC)CN(S(=O)(=O)c1ccc3c(c1)CCCC3)CC2	6%	-0.76

Compound	% Inhibition	Z score
COC(=O)C1CCCCCCC1NC(=O)Nc1cccc(F)c1 (centres undefined)	2%	-0.46
CCn1c(=O)c(N2CCC[C@H](C(=O)NCCc3c[nH]c4ccccc34)C2)nc2ccccc21	35%	-0.82
C[C@@H](Cn1ncc2ccccc21)C(=O)Nc1n[nH]c2cc(F)ccc12	-6%	1.12
COCCn1nc(C)c(Br)c1C	-1%	0.09
CN1CCN(Cc2cc(CN3CCCCC3)cs2)C[C@H]1c1ccccc1	1%	-0.11
O=C(CN1C(=O)c2ccccc2C1=O)OCC(=O)N1CCCCC1	16%	-1.83
CC(NC(=O)c1ccc2c(c1)OCO2)C1CC2CCC1C2 (centres undefined)	-13%	1.66
CC(C)c1nnnn1[C@H]1CO[C@H]2[C@@H]1OC[C@H]2O	2%	-0.27
c1ccc2sc([C@H]3CCN(C4CCC4)C3)nc2c1	-14%	2.12
O=C(NCCN1Cc2cc(Cl)ccc2OCC1=O)c1ccc(=O)[nH]c1	-17%	2.96
CC[C@@H](C(=O)N1CCN(c2nc(CN3CCN(Cc4ccccc4)CC3)cc(=O)[nH]2)CC1)c1ccccc1	-12%	2.12
COC(=O)C[C@H](c1c(Cc2cc(F)c(F)cc2F)[nH][nH]c1=O)c1ccnn1C	-4%	0.56
Cc1cnn(C)c1S(=O)(=O)NC1(Cc2ccccc2)CC1	-8%	1.19
CCn1cnnc1CN(C)CC[C@H]1CC1(F)F	-3%	0.41
CCn1nc(-c2ccc(C)o2)nc1CN1C(=O)CNC1=O	13%	-1.85
CCOC1CC(NC2CC(c3ccc(F)cc3)C2)C12CCC2 (centres undefined)	85%	-15.92
O=C(NC[C@H](OCCO)c1ccsc1)c1ccc2c(c1)OCO2	-7%	1.01
CC(F)(F)CC(=O)Nc1cccc(O)c1	8%	-1.02
COc1ccccc1N1CCN(C[C@]2(O)CCCN(CC(C)(C)C)C2=O)CC1	7%	-0.81
Cc1ncsc1CCN(C)Cc1c(C)noc1C	-10%	1.73
CCN(CC(=O)N1CCCCCC1)C(=O)c1cc(C(C)C)n(C)n1	-15%	1.95

Compound	% Inhibition	Z score
CCOc1ccc(-c2cn(C3CN(C(=O)c4cccnc4)C3)nn2)cc1	-9%	0.83
O=C(c1cccnc1)N1CC[C@@]2(CCCN(CC3CCCCC3)C2=O)C1	-12%	2.11
CN1C(=O)c2cccn2C[C@@H]1CNC(=O)c1nccn1C	-6%	1.11
O=C(Cn1cccnc1=O)N(Cc1ccccn1)C1CCCCC1	-8%	1.73
Cc1ccsc1CN(C)[C@@H](C(=O)O)c1c(C)noc1C	-6%	0.54
Cn1cc(C(=O)N2CCCN([C@H]3COC[C@@H]3O)CC2)c(=O)c2ccccc21	-6%	0.8
Cc1c(F)cccc1S(=O)(=O)N1CC[C@H](c2nccn2C)C1	1%	-0.07
Cc1nn(-c2ccc(F)cc2)c2[nH]nc(NC(=O)Cn3cnnn3)c12	-7%	0.88
Cc1cc(S(=O)(=O)CC#N)ccc1F	1%	-0.15
CCC(=O)N(Cc1ccc(C)cc1)c1ccc(CC(=O)NCc2ccccc2)cc1	-22%	2.16
Clc1ccc(-c2noc(C3CNC3)n2)cc1	37%	-3.77
CCOC1CC(N(C)C(=O)c2ccc(COC)o2)C12CCCC2 (centres undefined)	-14%	1.51
O=C1NC2(CCCCCCC2)C(=O)N1C[C@H](O)c1ccccc1F	-21%	3.53
Cc1[nH]c2ccccc2c1C(c1ccccc1OCc1ccccc1Cl)c1c(C)[nH]c2ccccc12	-10%	1.26
CC(C)c1nc(C(=O)N2CCN(c3ccc4ccccc4c3)CC2)cs1	-5%	0.73
CC(C)N(C)c1ccc(CNCc2ccc3c(c2)OCCO3)cn1	-8%	0.84
Cc1noc(C)c1CN1CCN2C(=O)c3ccc(-c4ccccc4)cc3OCC[C@@H]3CC[C@H](O)[C@@H](CNC(=O)[C@@H]2C1)O3	-10%	1.83
CC(=O)Nc1cccc(NC(=O)COC(=O)c2ccc3c(c2)nc(C)n3-c2ccccc2)c1	-7%	1.34
CC1CCN(C[C@H](O)Cn2cnc3nc(N4CCCC4)sc3c2=O)CC1	-15%	1.22
CCn1nc(C)cc1-c1nc(-c2c(C)ncc3c2CCN(C(C)=O)C3)no1	-9%	1.7
Cc1cc(NCc2ccc(C(=O)N(C)C)[nH]2)ccc1C(=O)NC(C)C	2%	-0.28

Compound	% Inhibition	Z score
CC1CCCCC1NC(=O)COC(=O)c1ccc2nccnc2c1 (centres undefined)	-1%	0.07
CCn1nc(CC(C)C)cc1C(=O)NCCc1cn2cccnc2n1	-5%	0.94
Cc1ccc(S(=O)(=O)N2CCN(C(=O)CN3CCCCCC3)CC2)cc1	-15%	2.19
O=C(c1ccn2c(-c3ccc(F)cc3)nnc2c1)N1CCN(c2cccc(C(F)(F)F)c2)CC1	-13%	2.21
c1ccc(COC[C@H](Nc2ncnc3ccccc23)c2ccccc2)cc1	-12%	1.08
Cc1cc(C(=O)N2CC(C(=O)Nc3ccc(F)c(Cl)c3)C2)no1	-1%	0.23
CCCN(CC1CC1)S(=O)(=O)c1cccs1	-8%	0.99
Cn1nc(C2CCCC2)cc1NC(=O)c1ccc(OCC(=O)O)cc1	1%	-0.23
Cc1ccc(NC(=O)c2cn(CC3(O)CCN(Cc4ccccc4)CC3)nn2)c(C)c1	36%	-1.1
O=C(NC[C@H](O)c1ccc2c(c1)OCCO2)Nc1ccccc1C(F)(F)F	7%	-0.95
O=C1C[C@H](c2ncc[nH]2)c2cnn(-c3ccccc3)c2N1	-10%	1.79
O=C(Cc1cccc(C(=O)O)c1)NC1(Cc2ccc(F)cc2)CC1	-30%	3.47
O=S(=O)(c1cccnc1Nc1cccc(C(F)(F)F)c1)N1CCOCC1	-37%	4.31
CCn1c(=O)c(-c2ccc(C(=O)N[C@@H](C)c3ccccc3)cc2)nc2cccnc21	-4%	0.62
CC(C)N(C)Cc1nnnn1CC(=O)N(C)Cc1ccnc2ccccc12	-17%	1.54
CCN(CC)C(=O)c1ccccc1NC(=O)C1CCN(S(=O)(=O)Cc2ccccc2Cl)CC1	-1%	0.19
CCc1n[nH]c(=O)c(C(=O)N2CC3CCCCC3C2)c1CC (centres undefined)	1%	-0.1
CCC(C)NC(=O)C1CCC(c2ccc(F)cc2)N(C(=O)c2ccccc2)C1 (centres undefined)	-11%	1.47
CN(CCCNC(=O)CCC(=O)N1CCOc2ccc(Cl)cc21)Cc1ccccc1	-15%	2.17
